Measured values as given in the antibiotic and cytotoxicity screens of Wong et al. (2023).
The other results are listed elsewhere or left out.

System: HSkMC (human skeletal muscle cells)
Experiment: cytotoxicity call (relative viability < 0.9)
Conditions: 10 µM

| SMILES | cytotoxicity call |
| --- | --- |
| C[C@H]1CN([C@@H](C)CO)C(=O)Cc2cc(NS(=O)(=O)c3ccccc3)ccc2O[C@@H]1CN(C)S(=O)(=O)c1cn(C)cn1 | inactive |
| O=c1c(O)cccc2cc(O)c(O)c(O)c12 | inactive |
| COc1ccc(COC[C@]23NC(=O)N(C(=O)c4ccccc4)[C@H](c4ccccc4O2)[C@H]3CO[Si](C)(C)C(C)(C)C)cc1 | inactive |
| COc1ccc(S(=O)(=O)N[C@H]2CC[C@@H](CC(=O)N3CCC(Cc4ccccc4)CC3)O[C@@H]2CO)cc1 | inactive |
| CCc1ccc(NC(=N)N=C(N)N)cc1 | inactive |
| O=C(CCCCCCC(=O)Nc1ccc([C@H]2C[C@H](c3ccccc3)O[C@H](c3cccc(Oc4ccccc4)c3)O2)cc1)NO | inactive |
| O=C(C[C@H]1C=C[C@@H](NS(=O)(=O)c2ccc(F)cc2)[C@@H](CO)O1)NCc1ccc(Cl)c(Cl)c1 | inactive |
| C[C@@H]1CCCCO[C@@H](CN(C)S(=O)(=O)c2ccccc2)[C@@H](C)CN([C@@H](C)CO)C(=O)c2cc(NC(=O)Nc3ccc4c(c3)OCO4)ccc2O1 | inactive |
| C[C@@H]1CCCCO[C@@H](CN(C)S(C)(=O)=O)[C@H](C)CN([C@@H](C)CO)C(=O)c2cc(N(C)C)ccc2O1 | inactive |
| COc1ccc(NC(=O)Nc2ccc3c(c2)C(=O)N([C@@H](C)CO)C[C@@H](C)[C@@H](CN(C)S(=O)(=O)c2ccc(F)cc2)OCCCC[C@H](C)O3)cc1 | inactive |
| COc1ccc(S(=O)(=O)Nc2ccc3c(c2)C(=O)N([C@@H](C)CO)C[C@@H](C)[C@H](CN(C)S(=O)(=O)c2ccccc2)O3)cc1 | inactive |
| C[C@H](CO)N1C[C@H](C)[C@H](CN(C)Cc2ccc(C(=O)Nc3ccccc3N)cc2)Oc2ccc(NC(=O)Nc3ccc4c(c3)OCO4)cc2CC1=O | inactive |
| COc1ccc(NC(=O)Nc2ccc3c(c2)C(=O)N([C@@H](C)CO)C[C@H](C)[C@@H](CN(C)C(=O)Nc2ccccc2)OCCCC[C@H](C)O3)cc1 | inactive |
| C[C@H](CO)N1C[C@H](C)[C@@H](CN(C)Cc2ccc(-c3ccccc3)cc2)Oc2ccc(NS(=O)(=O)c3ccccc3)cc2CC1=O | inactive |
| CC(C)NC(=O)Nc1ccc2c(c1)CC(=O)N([C@@H](C)CO)C[C@H](C)[C@@H](CN(C)S(=O)(=O)c1ccc(F)cc1)O2 | inactive |
| C[C@@H]1CN([C@@H](C)CO)C(=O)Cc2cc(NC(=O)Cc3ccccc3)ccc2O[C@@H]1CN(C)Cc1ccc(C(F)(F)F)cc1 | active |
| C[C@@H]1COCCS(=O)(=O)N1C | inactive |
| c1cnc2nccn2c1 | inactive |
| CS(=O)(=O)OCCCCOS(C)(=O)=O | inactive |
| CCCN(C)C[C@H]1OCCCC[C@H](C)Oc2ccc(NC(=O)Nc3cccc4ccccc34)cc2C(=O)N([C@@H](C)CO)C[C@H]1C | inactive |

| SMILES | cytotoxicity call |
| --- | --- |
| Cc1noc(C)c1S(=O)(=O)Nc1ccc2c(c1)C(=O)N([C@@H](C)CO)C[C@H](C)[C@@H](CN(C)C(=O)Nc1ccccc1)O2 | inactive |
| C[C@H](CO)N1C[C@H](C)[C@@H](CN(C)S(=O)(=O)c2cccs2)Oc2ccc(NS(=O)(=O)c3cn(C)cn3)cc2CC1=O | inactive |
| Cc1ccc(S(=O)(=O)N(C)C[C@H]2Oc3c(NC(=O)c4ccncc4)cccc3C(=O)N([C@H](C)CO)C[C@@H]2C)cc1 | inactive |
| C[C@H](CO)N1C[C@H](C)[C@H](CN(C)C(=O)C2CCCCC2)OCCCC[C@H](C)Oc2ccc(NC(=O)Nc3ccc(C(F)(F)F)cc3)cc2C1=O | inactive |
| N[C@H](CO)COCc1ccccc1 | inactive |
| Cc1ccc(S(=O)(=O)N(C)C[C@H]2OCCCC[C@@H](C)Oc3ccc(NS(=O)(=O)c4ccc(F)cc4)cc3C(=O)N([C@H](C)CO)C[C@H]2C)cc1 | inactive |
| CCNC(=O)N1CCN(CCO)CC1 | inactive |
| C[C@@H]1CCCCO[C@H](CN(C)Cc2ccc3c(c2)OCO3)[C@H](C)CN([C@H](C)CO)C(=O)c2cc(NS(=O)(=O)c3ccccc3)ccc2O1 | inactive |
| Cc1noc(C)c1NC(=O)Nc1ccc2c(c1)CC(=O)N([C@@H](C)CO)C[C@H](C)[C@@H](CN(C)S(C)(=O)=O)O2 | inactive |
| C[C@@H]1CN([C@@H](C)CO)C(=O)Cc2cc(NC(=O)NC3CCCCC3)ccc2O[C@H]1CN(C)Cc1ccc(C(F)(F)F)cc1 | inactive |
| C[C@@H]1CCCCO[C@H](CN(C)Cc2ccc(C(F)(F)F)cc2)[C@H](C)CN([C@H](C)CO)C(=O)c2cc(NC(=O)CCC(F)(F)F)ccc2O1 | inactive |
| CO[C@H]1CN(C)C(=O)c2ccc(NC(=O)C3CC3)cc2OC[C@H](C)N(C(=O)Cc2ccccn2)C[C@@H]1C | inactive |
| C[C@@H]1CCCCO[C@@H](CN(C)C(=O)Nc2cccc3ccccc23)[C@H](C)CN([C@@H](C)CO)C(=O)c2cc(NS(=O)(=O)c3ccc(Cl)cc3)ccc2O1 | inactive |
| C[C@@H]1CCCCO[C@@H](CN(C)S(=O)(=O)c2cn(C)cn2)[C@H](C)CN([C@H](C)CO)C(=O)c2cc(N(C)C)ccc2O1 | inactive |
| C[C@H](CO)N1C[C@H](C)[C@@H](CN(C)S(C)(=O)=O)OCCCC[C@H](C)Oc2ccc(NC(=O)c3ccncc3)cc2C1=O | inactive |
| C[C@@H]1CCCCO[C@H](CN(C)CC2CCCCC2)[C@@H](C)CN([C@H](C)CO)C(=O)c2cc(NC(=O)CCC(F)(F)F)ccc2O1 | inactive |
| NCCC(=O)N1c2ccccc2Sc2ccccc21 | inactive |
| Cc1noc(C)c1NC(=O)N(C)C[C@@H]1OCCCC[C@H](C)Oc2ccc(NC(=O)c3ccccc3)cc2C(=O)N([C@@H](C)CO)C[C@@H]1C | inactive |
| C[C@H](CO)N1C[C@H](C)[C@H](CN(C)Cc2ccc(-c3ccccc3)cc2)Oc2ccc(NC(=O)Cc3cn(C)c4ccccc34)cc2CC1=O | inactive |
| COc1ccc([Si](C)(C)[C@H]2[C@H](CC(=O)N3CCC[C@H]3CO)O[C@@]3(C(=O)N(Cc4ccc(N5C(=O)c6cccc7cccc5c67)cc4)c4ccccc43)[C@@H]2C)cc1 | inactive |
